In assay [1] the target is T1, GFP-CdGAP BR (181-515) (mouse) (UniProt A6X8Z5).
T1 sequence: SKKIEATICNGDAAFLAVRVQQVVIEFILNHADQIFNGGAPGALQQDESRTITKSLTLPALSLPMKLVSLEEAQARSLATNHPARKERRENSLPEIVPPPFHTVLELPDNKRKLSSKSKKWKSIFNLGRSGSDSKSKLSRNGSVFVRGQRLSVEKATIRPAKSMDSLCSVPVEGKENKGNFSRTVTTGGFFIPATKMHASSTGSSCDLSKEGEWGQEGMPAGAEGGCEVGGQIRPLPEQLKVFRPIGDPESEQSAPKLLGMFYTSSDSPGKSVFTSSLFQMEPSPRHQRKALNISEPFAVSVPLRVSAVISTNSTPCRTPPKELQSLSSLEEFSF
As to the kind of experiment: co-IP; COS-7 cells co-transfected with GFP-CdGAP constructs and HA-14-3-3β, unstimulated or treated with PMA; GFP-CdGAP proteins immunoprecipitated from total cell lysates; immunoblot. (In western blotting, separated proteins are transferred to a membrane and probed.)

By UniProt entry, the sequences of proteins in these tests, tags left out.
UniProt P31946: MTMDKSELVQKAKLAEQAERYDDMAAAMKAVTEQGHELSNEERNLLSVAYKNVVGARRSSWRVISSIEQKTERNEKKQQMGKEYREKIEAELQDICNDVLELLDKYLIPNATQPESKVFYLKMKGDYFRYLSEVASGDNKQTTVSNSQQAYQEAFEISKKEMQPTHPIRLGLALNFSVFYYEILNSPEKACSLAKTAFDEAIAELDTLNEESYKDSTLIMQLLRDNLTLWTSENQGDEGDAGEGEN

In assay [2] the target is GFP-CdGAP C-terminal domain (1083-1425) (mouse) (UniProt A6X8Z5). Described as above.
For assay [3], the target named is T2, GFP-CdGAP N-terminal PBR-GAP fragment (1-221) (mouse) (UniProt A6X8Z5).
T2 sequence: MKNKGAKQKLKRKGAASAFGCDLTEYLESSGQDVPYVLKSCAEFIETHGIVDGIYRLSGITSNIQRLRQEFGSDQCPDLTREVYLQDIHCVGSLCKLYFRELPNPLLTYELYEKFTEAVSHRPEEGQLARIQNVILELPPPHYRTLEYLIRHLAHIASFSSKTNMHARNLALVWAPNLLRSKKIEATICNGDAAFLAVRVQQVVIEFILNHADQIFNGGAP
The description is as above.

Assay [4] addresses T3, GFP-CdGAP PRD (516-820) (mouse) (UniProt A6X8Z5).
T3 sequence: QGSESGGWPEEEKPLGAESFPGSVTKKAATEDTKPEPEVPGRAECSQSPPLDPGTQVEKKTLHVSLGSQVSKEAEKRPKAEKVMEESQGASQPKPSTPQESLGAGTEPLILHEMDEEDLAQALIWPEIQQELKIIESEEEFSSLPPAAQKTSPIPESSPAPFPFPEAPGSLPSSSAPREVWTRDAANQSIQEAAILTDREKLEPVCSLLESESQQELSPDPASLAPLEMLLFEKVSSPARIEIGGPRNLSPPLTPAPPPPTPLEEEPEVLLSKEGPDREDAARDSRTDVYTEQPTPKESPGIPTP
The description is as above.

Assay [5] has as its target GFP-CdGAP wild-type (mouse CdGAP) (mouse) (UniProt A6X8Z5). The assay is described as above.
The target in the next assay is GFP-CdGAP-S1093A (mouse) (UniProt A6X8Z5). The description is as above.
The target in assay [6] is GFP-CdGAP-S1093A/S1163A (mouse) (UniProt A6X8Z5). The assay is described as above.
The target in a further assay is GFP-CdGAP-S1163A (mouse) (UniProt A6X8Z5). The assay is described as above.
The next assay deals with GFP-CdGAP-S272A (mouse) (UniProt A6X8Z5). The assay is described as above.
Assay [7] addresses Myc-tagged human CdGAP (hCdGAP) wild-type (human) (UniProt Q2M1Z3). As to the kind of experiment: co-IP; COS-7 cells co-transfected with HA-14-3-3β and myc-hCdGAP constructs; Myc-hCdGAP proteins immunoprecipitated from total cell lysates in duplicates; blotted with anti-Myc and anti-HA.
Assay [8] addresses T4, Myc-tagged human CdGAP-Q683X (AOS-related mutant) (human) (UniProt Q2M1Z3).
T4 sequence: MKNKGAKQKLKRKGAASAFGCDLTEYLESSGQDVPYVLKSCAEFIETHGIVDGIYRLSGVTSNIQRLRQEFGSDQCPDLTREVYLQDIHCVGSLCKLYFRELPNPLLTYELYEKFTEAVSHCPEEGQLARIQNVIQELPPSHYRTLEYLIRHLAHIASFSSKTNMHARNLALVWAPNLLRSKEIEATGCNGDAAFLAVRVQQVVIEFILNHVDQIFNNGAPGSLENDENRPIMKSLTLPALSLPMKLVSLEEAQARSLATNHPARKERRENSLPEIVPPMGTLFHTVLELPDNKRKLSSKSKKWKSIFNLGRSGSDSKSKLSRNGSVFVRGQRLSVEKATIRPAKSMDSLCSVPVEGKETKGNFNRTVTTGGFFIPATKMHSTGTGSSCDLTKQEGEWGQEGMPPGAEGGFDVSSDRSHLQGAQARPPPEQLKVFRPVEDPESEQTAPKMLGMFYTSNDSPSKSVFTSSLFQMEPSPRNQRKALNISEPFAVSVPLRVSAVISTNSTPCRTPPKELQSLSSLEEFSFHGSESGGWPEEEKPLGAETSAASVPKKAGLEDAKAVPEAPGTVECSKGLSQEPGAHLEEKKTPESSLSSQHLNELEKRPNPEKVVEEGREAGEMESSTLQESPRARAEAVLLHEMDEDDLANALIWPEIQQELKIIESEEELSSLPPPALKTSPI
Described as above.

The target in assay [9] is Myc-tagged CdGAP (wild-type), expressed in HEK293 cells (not stated (human or mouse cDNA cloned)) (UniProt Q2M1Z3). As to the kind of experiment: co-IP; HEK293 cells co-transfected with myc-CdGAP and HA-14-3-3 isoforms; Myc-CdGAP immunoprecipitated from total cell lysates, blotted with anti-Myc and anti-HA.
Assay [10] has as its target HA-tagged 14-3-3β, expressed in HEK293 cells (UniProt P31946). As to the kind of experiment: co-IP; HEK293 cells co-transfected with myc-CdGAP and HA-14-3-3 isoforms; HA-14-3-3 immunoprecipitated from total cell lysates, blotted with anti-Myc and anti-HA.
Assay [11] has as its target endogenous CdGAP of MDA-MB-231 cells (human (endogenous in MDA-MB-231)) (UniProt Q2M1Z3). Kind of assay: co-IP; endogenous CdGAP immunoprecipitated with anti-CdGAP antibodies (rabbit IgGs as control) from lysates of MDA-MB-231 cells, with or without TGFβ (5 ng/ml) stimulation; immunoblot.

Results are given in words; binding and its absence hold for the method and conditions named. In cells and extracts the contact can be indirect. Some binding calls cover weakened binding; strength is not graded here. For some assays here: Where a sequence is shown, tags or fusion partners need not be part of it.

Turning to “HA-tagged 14-3-3β, expressed in COS-7 cells (from UniProt P31946 1-246)”, the binding entry in assay [1] was “binds”; in assay [2], “binds”; in assay [3], “binds”; in assay [4], “no binding”; in assay [5] it was “binds”; with GFP-CdGAP-S1093A (mouse), “binds”. Also, the binding result in assay [6] is “binds weakly”; with GFP-CdGAP-S1163A (mouse), “binds”; with GFP-CdGAP-S272A (mouse), “binds”; in assay [7] it was “binds”; in assay [8], “binds”.

As to “HA-tagged 14-3-3β, expressed in HEK293 cells (from UniProt P31946 1-246)”, the binding entry in assay [9] was “binds”.

Regarding “Myc-tagged CdGAP (wild-type), expressed in HEK293 cells (from UniProt Q2M1Z3 1-1444)”, the binding entry in [10] is “binds”.

On to “endogenous 14-3-3β of MDA-MB-231 cells (from UniProt P31946 1-246)”, for which the binding entry in assay [11] is “binds”.

Values taken from PMC5837747.
